Data reported in the supplement of paper PMC12067230.
The data scatter; read single values as rough.

B1: library; a variant is named by its letters at X, in order (parent)
chain: EASNCFAIRHFENKFAVETLICXXXXXXXX

Variants of: B1
Experiment: amyloid nucleation score relative to library mode (yeast Sup35 reporter selection) (log enrichment difference); higher = more amyloid nucleation; sequences are the first 22 residues of the Bri2 peptide extended by up to 12 random residues
Details: random library (experiment): 2;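 active = nucleation score significantly above 0 at FDR 0.05; inactive = not significantly above 0 or absent from output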
Method: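 Random C-terminal extensions of the 22-aa Bri2 peptide by 12 NNK codons; premature stops give shorter extensions. Peptides were fused to the Sup35 nucleation domain in S. cerevisiae [psi-pin-] and selected on -ADE-URA plates for 7 d at 30 °C. The nucleation score is log(output/input), centred to the mode of each of 3 independent libraries (1 input, 3 technical output replicates), with duplicates merged. Sequences absent from the output ('random_non_nuc') were imputed with the library mode value, so they are given as censored (<). Nucleators are scores significantly >0 at FDR 0.05.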
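Also: [psi-pin-] Saccharomyces cerevisiae expressing SupN fusions, induced by 100 µM Cu2SO4, selected 7 d at 30 °C without adenine and uracil, scored by deep sequencing of output versus input.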

Variant | amyloid nucleation score
FFLCETLP | 3.45
LNEDAKQR | 1.59
NALCRSMN | inactive
RNLGVFPF | 6.18
TNCLCRRD | 8.14
VLNNVVDC | 2.8
CAAWYGDD | 9.01
CHMVCFVW | 2.81
VLLMCIWA | inactive
DINVVSLN | 7.28
DKQSYYPS | inactive
PMYSCKVC | 4.67
WALFNYPV | inactive
YGQICYNY | 7.8
IDVALPFD | inactive
IDNLLVLV | inactive
DLVYSNMW | 3.29
YCRCFYAL | 6.16
NLQHNQKQ | 4.21
LMVKSGLF | inactive
NGRKRHSK | 1.05
RKSYNCFC | inactive
NDFHGGWG | 5.8
VLFATHAR | inactive
PFVTTVIY | inactive

Variant | amyloid nucleation score
VAWTYQWL | 2.91
YFLFFLRR | inactive
RFVGHVRV | inactive
IISPRSAE | 7.05
ILMMSDMV | inactive
HCGLYAFC | 6.11
EKPTRAVL | inactive
HLILTLYY | -0.166
LFCFVNVD | 8.23
GGYCGVCQ | inactive
ELSFCLFV | inactive
VMFLLNAR | inactive
YLYYLLVV | inactive
VIPREDLF | 6.92
LMWYCSRR | 3.23
LLLISGNV | inactive
VHLLDQNS | 6.75
KHGTETWC | -0.293
LFLGLYNV | -0.663
LLTFMRAG | inactive
LMVSFSNN | 4.81
NGTMFHGF | 7.66
LGYLRYRL | inactive
VCTWRFFY | inactive
YDLFVTLF | inactive

Variant | amyloid nucleation score
AIRVSTVF | inactive
LMFDEWSN | inactive
LGINGSCR | 7.75
WMVKFEPD | -0.255
KFDNYDMW | 6.15
HKLSVYFS | inactive
VNVRVNYV | 0.574
EDSWIYIY | 3.75
ILLGLKYI | -0.513
VLDCTIQY | 5.37
CKCRKWRF | 5.03
LFIKGETG | 2.66
CMDVCTID | 7.8
LLTGYMSV | 3.87
CILNMSCV | 7.49
WKIMVRVF | inactive
NDSHRFCS | inactive
DGTLLLVF | inactive
HDGTVRRT | 0.18
ACFCYYMY | 4.05
MNTVRFLV | inactive
AEMMSRCL | inactive
IGRESGQK | inactive
MLLNLQRI | inactive
FKYFRLKA | inactive

Variant | amyloid nucleation score
FDLYILPE | -0.0862
YFSRKLLS | -0.779
LFKFDNVD | 4.93
WDNSRQAC | 0
MFTVSSVL | inactive
CMRGLVVV | 3.8
CGLITYYL | 8.28
VLSGLLCC | 5.9
VIIIMRTW | inactive
IHGSGNAH | 2.31
LEFVSMKL | -0.215
VFPNSGNL | 7.91
FFCSSCWF | 7.86
PCDFMCWF | 8.93
GHWTLLLL | inactive
IFLWDYMI | inactive
GNGILSEF | inactive
VHNFQRSV | inactive
ILTYAYST | -0.104
VGFSEGRR | inactive
RKLSLILY | inactive
VLRMFVHC | inactive
YGYLSATR | 1.18
NLDLLCVV | inactive
GGSSVKDL | inactive

Same assay, conditions: random library (experiment): 1

Variant | amyloid nucleation score
GSIRVGYP | 5.14
EWPVWWYS | 4.12
GSLAARAQ | 0.288
VSEGVLDG | inactive
KALSCQRM | inactive
VVERSRKR | 5.03
RMESWSRS | 0
NRHSQNML | -0.211
VNGLPSFA | inactive
GHLMWARM | inactive
RSLRRRFC | -0.412
AGQGSVSI | inactive
HDRYYVRV | inactive
GKTIGGRR | inactive
MVSFSMAE | -0.179
VCGDMGRV | 7.3
DPLCRVFG | 0.498
FRASEGTS | 0.04
GNSQKTDM | inactive
GVRQNGCK | inactive
CLVLPVSP | 4.93
VSCMWGGA | 7.73
QMSRMLSG | inactive
VWTATWDA | inactive
PGDVCVWH | inactive

Variant | amyloid nucleation score
FQRRYAIK | inactive
NRWPCYSW | inactive
ADWGDNSA | inactive
THCPFRRC | inactive
WMVSRLKV | inactive
LLWYCYNW | inactive
CSGGWARS | 8.93
TVLGSITL | 7.53
LVAIDWMR | inactive
VCKPLGLL | 3.87
IRMYFNPC | inactive
PQLAGVLL | -0.071
AVKMWLNE | -0.0664
TVGVVCTN | inactive
MSFHNSND | 8.59
VELKCCTT | 4.5
YIELRDSN | 5.36
WWEYRTAP | inactive
CTVWYAAR | 6.96
VDEMVYSG | inactive
HDGSKWRA | inactive
WFRLRHGR | inactive
LICDFRVG | 6.05
NSSYSISY | inactive
CMNKGQPK | 1.89

Variant | amyloid nucleation score
DGTALLDR | inactive
LNLPGLSS | 6.02
YAFCCMIV | 0.376
CHEASAKE | inactive
VLMCRVYI | inactive
IALVSCIS | -0.0935
KVRKDSTV | inactive
AVWSASDV | 5.28
YCRWFKKL | inactive
TFRSYSSL | 2.91
GYSVRSSS | -0.309
ELFKGIRP | 2.12
LAKLMRRS | inactive
WSTVESTL | 4.56
WVEGERLD | 1.78
TLSLLRNG | inactive
WVSVLQRE | inactive
LWKVPGLL | inactive
WSMGIINE | 4.09
LVSCTMVL | inactive
DAMGGKQK | inactive
AWLSEDRA | inactive
VLSNHPYA | 5.02
VPGGQLVR | inactive
AVMMHRRN | inactive

Variant | amyloid nucleation score
LEYLGVAD | inactive
RRPVRRRE | inactive
EEPTGLRP | -0.219
PTSLRLAR | 0.674
AVLTHSAE | inactive
LSSSGLTD | -0.0664
CASPKYGK | 5.99
IAMNGLFR | inactive
RMCCRSWL | inactive
DEAKFDLH | 3.2
VLSERRWF | inactive
VSFRWSYA | 7.1
CYVDTSRR | 8.57
KGYCRCII | inactive
EVYERRQA | -0.219
VSFTGLCT | 6.15
CRWCATEL | 6.65
ISWSTSRD | 4.99
LIRGSRET | 2.95
AMKVLFEI | inactive
VKLIRGQE | inactive
RKFPSWEC | inactive
VSGWMSKL | inactive
WSVVRTAR | 5.79
MRVRVSFL | inactive

Variant | amyloid nucleation score
KVTGMAGT | inactive
LPLCHDFS | 8.39
NVRLRVKL | 4.79
YWEGFEWC | inactive
KECRQKKR | 0.887
LYSSPSVE | inactive
VCMVFGCI | inactive
RKLFDCLV | -0.0479
VFKFNPGV | 3.34
DVLANNYA | inactive
CVWVSWCT | 6.07
AVKDNGAV | inactive
FRKMWQCG | inactive
AAESPSPT | inactive
ASVNHFLT | inactive
KYYAHIVS | inactive
VVRAVARE | inactive
ARVWQVAT | inactive
PARGWYVN | inactive
FRSRLIPE | 2.28
RSAMGTLG | inactive
WVGSSRPV | 1.3
VGREDTDY | inactive
RAQHGAII | inactive
CIRGLCGN | 4.73

Variant | amyloid nucleation score
FAQSWRPA | 3.47
NTRNAVSA | inactive
NRSFVVYD | inactive
LIFLPSWS | inactive
ASVHCPCS | inactive
LRQTKPLV | inactive
MFHPNSQY | 4.15
DSSRLFCS | 7.52
VVRMALHN | inactive
DLSRVKRV | inactive
IEYVELVA | inactive
ATLGVVVS | inactive
HLRSWPGE | inactive
NFIYCRFD | 4.89
VSWTLSLI | inactive
LSYGGNYF | 6.58
FSIKQNMN | 2.21
VSKGQGRV | -0.154
LGSVLGQD | 7.26
YCCRSLGP | 7.03
KAEDTLMQ | inactive
ESLSLRGM | inactive
LSEMGQYF | 2.11
RLGMADME | inactive
AEGMFHPA | inactive

Variant | amyloid nucleation score
VTQRATAW | inactive
GHAYRTRG | inactive
PQTIRWAR | inactive
TSVDCWTR | inactive
IRVCCPTN | 0.506
YVGCFEGL | 7.16
VLLERPCG | inactive
MYAGLLGR | 4.27
FSTVSGQY | 7.98
EPIGDQAT | inactive
RELVSYRP | 4
RSYEYNML | 0.754
VVPMDMIW | 4.58
LRTPTRGA | inactive
LMRNLCAK | inactive
RSIGRVFR | inactive
WDLWPICF | inactive
TAGRPTVA | inactive
YIIWHSFR | inactive
TTALNRYR | inactive
LCAHSPCK | 5.84
